Assay results published in the supplement of paper PMC10126150.
Sequences with one replicate were seen in a single cluster, so their values are uncertain.

Test system: ATP
Assay: switch fluorescence ratio, 500 uM ATP over buffer (Cy3 cluster intensity, sum of 5 cycles each) (fold (ratio)); higher = stronger signal-on switching upon ATP binding; sequences stand for … in TCGTCGGCAGCGTCAGATGTGTATAAGAGACAGTTTTTTTTTTTTTTTTTTTTTTTTT…TC
Conditions: aptamer strand: ATP DNA aptamer (quencher-CACCTGGGGGAGTATTGCGGAGGAAGG + anchor), 100 nM annealed; ATP concentration: 500 uM; one replicate
Method in brief: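 Per cluster, summed Cy3 intensity from the target cycles was divided by that from the buffer cycles to give the fluorescence ratio, then averaged per switch-domain sequence. Clusters outside 100-1000 RFU were excluded. The Cy3-labelled switching-strand clusters, on a modified Illumina MiSeq flow-cell, were annealed to 100 nM quencher-labelled ATP aptamer and imaged in selection buffer, then after 15 min with 500 uM ATP at 22 °C, for five cycles with NaOH stripping and re-annealing between them.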
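Further: ATP exposure 15 min at 22 °C before imaging.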

Sequence	switch fluorescence ratio
GACCAAAGTT	1.06
CTAGAATTT	0.964
AGGCGGTCGG	0.998
GCTATAGAGA	0.972
CGGTGCCGCC	0.946
ATTTGGCTTA	0.985
AGTTAAGACG	0.962
GCGGGGCACC	0.991
TTTAGCTTGC	0.99
AATGTCCATA	1.05
CGTATGTCAC	0.986
TCTAGTAAC	1.03
GGGAGATGAA	1.02
CAAAGTATTC	0.995
TCATAAACGG	1
CGTTCGTTCA	1.02
TGCAAACATT	1.03
TTATATTTCA	1.01
AAAGTCGAGC	0.965
TCCAGCGGAG	1.01
AACCTTCAGG	1.06
CAAATAAATG	0.98
TGGTGTTATG	0.966
TAGAGAGATT	1
AGTGTCGCGG	0.979
ATAAGTATAT	1.04

Sequence	switch fluorescence ratio
CCCCTTATCA	1.02
AGGGGTCAC	1.01
GTACGATCCA	1.06
TTACGCGGAC	1.45
AGCTGGGTAT	1.03
TTTTACAGAA	1
AACGAGTGAA	1.03
GAGAGGCCTG	0.98
TAGTATGTGA	1.08
GGTTATAAAA	1.03
ACGTCTCCTG	0.998
CGAGGGCCCG	1.01
CGCCCTTCCA	2.05
CCAGTGCTTT	1.05
TTAAGATCTG	0.962
TTAGGTTGAA	1.02
TTTCGTGCAT	0.978
CTGACTTTAA	1.03
CTTGGGCCGG	1.02
AGACAGTGT	0.99
TTACGTTAGC	1.11
GGAAACGAAG	0.992
TGGCATTACT	1.72
GAAAGAGTA	0.998
ACCTACGGGA	1.39
TGATTATCGG	0.995

Sequence	switch fluorescence ratio
CGGGGCCGCC	1.02
GATGTTGGT	1.01
TGGATCTAT	1.02
ACGTCGAGA	1.01
GATATCCTGT	0.957
GCGTTTTATC	1.03
CACAGCGGGA	0.986
TTGTTTGAGT	1.03
GCAGGGGTAC	1.12
GCGCGCCCTA	1.02
ACAAGGTTGT	0.97
CTATCTCCAG	1.04
CGATGGCCCG	0.978
CCTACTCACG	1.6
AGGATAACGT	0.975
TTGGCGGGA	1.07
ATCCTGGTTC	0.994
GTAAGTCTA	1.01
GAACTTAGCC	1.05
GGTCAGTATT	0.974
TTTGGGACCC	1.04
TTCATATCAG	0.964
AGAGGAGCAT	1.07
CTTGCTAATT	1.01
TGTGTGGGCC	0.953
ATACTTCGTT	1.07

Sequence	switch fluorescence ratio
CTCAGTAGAT	1.02
GGGCGGCGGT	0.996
TGGAAGACCA	1.01
CGTTTGCATA	1.2
GGCAATGTCA	1
GCATTTGCT	1.06
ATTATACGTT	1.02
GGTCGATGCG	1.04
TAGGTTACAC	1.02
ACCTAGGGGC	1.13
CAATTTTGTC	1.03
GCCCGTTGGT	1.01
ACGTCCGATT	1.06
GCTTTCTTAT	1.04
TTCGGTGAGC	1.01
CCCGATTAGG	0.983
TCTTGATTTG	0.981
GTCGTCGGTG	1.03
CATACTAACT	1.08
GTAATTTGAA	0.946
GGATGAGTAC	0.865
GAGAATCTTT	1.01
CGTTCGGGGA	0.995
TCAGGTACAC	1.01
TTTCACAGAT	1
GTGCATGTAC	1.23

Sequence	switch fluorescence ratio
AGTAAGGCAG	1.04
GGTTGAGCAT	1.02
CGCAATAAAT	5.04
TGGCCAGTTT	1.06
TGATCACTAA	1.02
AAGATATTTA	0.984
TAATACGAAC	1.46
CGCGTATTGA	1.03
GGTCTTATGA	1
ACAACGACAG	1.03
ACTGTTGCCG	1.09
CACTAGCCTA	0.998
GCATTTGGAT	0.992
AAGTCTCAGG	0.99
GGAGTAAAGT	1.12
TGAGTTCTTT	1.01
TGGAACTTCC	2.51
GTTGAGAG	0.98
CGGTCACAGG	1.44
GTACTATTCG	0.972
GGGATGACTC	0.935
AGGAAATAGA	0.989
AATAGATGCG	1.03
TGACGAATAG	1.12
CCATCCACAT	1.46
AAAACGGGCC	1.01

Sequence	switch fluorescence ratio
TTTCCGGCG	2.02
TGCTTACGG	0.992
GGTGGATTGA	0.977
GAAAGAACAA	1.12
CATAATTAAC	1.04
TGCTGTTTGA	1.02
ATATAGATAC	1.11
TTGTGGTGAT	1.02
TAATTGCCAG	1.02
GTTTCCTACT	0.98
TAGGGGTCGC	1
CTGCCGCCGA	1.3
CGAATTTAGA	1.03
TCGACGTCTG	0.968
ATCCCTTTCG	0.999
GGCATGCGGC	1.03
ACTAGGGTCA	0.96
GATTCGTGGT	0.945
GCTAGTCA	0.979
CTTTTAGGCG	1.05
ATTGGATTTC	1.05
CAATGGTCTC	1.03
TCGCTGTCAC	1.77
GCTTGTCTGA	0.994
TCAGTAATTA	1.03
ACAAGAAGGT	1.01

Sequence	switch fluorescence ratio
TCCCTTAGCG	1.04
CGACGCGTCT	1.13
CTAAGTACTT	1.44
GTGTTTAGAT	0.959
GTTTGTAGCA	1.05
AATCATGACT	1.02
AAGGTCATCC	0.988
CTTCCTGATT	1.01
TATCTGGCT	1.03
ACGCATGACC	2.13
TTTGCGCTGG	0.997
CATCTGTTCG	0.984
ATAACAGCTG	1.03
CACTTACGTA	1.43
CCCTATTTCA	0.989
TATATTGTGT	0.98
TCCTTATTAT	1
TCCGACCTGA	1.95
TTTAGGAGTG	1.01
CGTGTTTCGA	1.04
CCAGGGATCC	1.1
TTCCCGTCGC	1.08
ACGTATCCAG	0.978
TAAAGCGGTT	1
GTAAGTATCG	1.02
GTGGCTGCG	0.992

Sequence	switch fluorescence ratio
CTTTTGGTC	0.965
GGTGAAGTA	0.937
TATGACTGCG	0.984
GGGTCGCAGG	1.07
CTAAGTGAAA	0.97
TCATGAGCT	1.03
CCCTGGTCTG	1.05
GCAAGGGCTG	0.973
CTTATACCCC	1.13
GGTGCGGGGA	1.04
TGAGTTTTAT	0.992
GCGATTGACG	0.833
AGCAGGGTCT	0.984
TGTTTCACTC	1.02
ATGTGTTCGC	1.02
GGGTGGATAT	1.02
AAACGAGACT	1.04
ATTGTGGTAA	0.992
TTTACGCGTG	0.993
